These results are taken from a collection of fitness landscapes (doi:10.1126/science.1257360).

B1: PhoQ; a variant is named by its letters at X, in order, P23837 (parent)
chain: MKKLLRLFFPLSLRVRFLLATAAVVLVLSLAYGMVALIGYSVSFDKTTFRLLRGESNLFYTLAKWENNKLHVELPENIDKQSPTMTLIYDENGQLLWAQRDVPWLMKMIQPDWLKSNGFHEIEADVNDTSLLLSGDHSIQQQLQEVREDDDDAEMTHSVAVNVYPATSRMPKLTIVVVDTIPVELKSSYMVWSWFIYVLSANLLLVIPLLWVAAWWSLRPIEALAKEVRELEEHNRELLNPATTRELTSLVRNLNRLLKSERERYDKYRTTLTDLTHSLKTPLXXLQXXLRSLRSEKMSVSDAEPVMLEQISRISQQIGYYLHRASMRGGTLLSRELHPVAPLLDNLTSALNKVYQRKGVNISLDISPEISFVGEQNDFVEVMGNVLDNACKYCLEFVEISARQTDEHLYIVVEDDGPGIPLSKREVIFDRGQRVDTLRPGQGVGLAVAREITEQYEGKIVAGESMLGGARMEVIFGRQHSAPKDE

The other results are listed elsewhere or left out.

Variants of B1 are the subject of this assay. Nature of the assay: enrichment ratio after two sorts for PhoP signalling (ratio (wild type AVST 3.29)); higher = more functional. The settings on record: with PhoP (E. coli).
As to PKDG, the enrichment ratio was not above 0.25.
As for PQWS, the enrichment ratio is not above 0.25.
Then NFVR, with not above 0.25; and LSCR, with not above 0.25; and HLNA, with not above 0.25.
Then SWNS, with not above 0.25; and AHAG, with not above 0.25.
As to SQAM, the enrichment ratio came to 21.4.
Then QFHH, with not above 0.25.
The same measure for YMAE: 0.497; for QNLW: not above 0.25; for ETGF: not above 0.25.
As to QFMI, the enrichment ratio turned out to be 0.792.
The same measure for YVYG: not above 0.25; for AVCI: 21.8; for FCRE: not above 0.25.
For the variant DMIQ, the enrichment ratio is not above 0.25.
The same measure for QYHK: not above 0.25; for SYQR: not above 0.25.
The same measure for TKTQ: 12.6; for FQDM: not above 0.25; for WLPM: not above 0.25.
The same measure for IAKN: not above 0.25; for YLAI: not above 0.25.
Regarding YYYC, the enrichment ratio was not above 0.25.
Then GGIY, with 2.45.
The same measure for IPCL: not above 0.25.
With GMSY, the enrichment ratio stood at 1.48.
Then AHGT, with not above 0.25; and RGNT, with not above 0.25; and WTSY, with not above 0.25.
With RWGR, the enrichment ratio was not above 0.25.
The same measure for ECYR: not above 0.25.
Then RWMQ, with not above 0.25; and KELG, with not above 0.25.
The same measure for QQSG: not above 0.25; for VKES: not above 0.25.
MKLK: the enrichment ratio was not above 0.25.
Then RCMM, with not above 0.25; and VDRW, with not above 0.25; and EECS, with not above 0.25.
Then RCIP, with not above 0.25.
The same measure for SQDS: not above 0.25; for TDTW: not above 0.25.
Consider GPVW, for which the enrichment ratio was not above 0.25.
The same measure for GWLV: not above 0.25.
Then YHEL, with not above 0.25; and SGPG, with not above 0.25.
Then RMGR, with 0.804.
Consider INQF, for which the enrichment ratio is not above 0.25.
Then NAES, with not above 0.25.
For VKDV, the enrichment ratio is not above 0.25.
The same measure for GLGR: not above 0.25.
On to IAFY, for which the enrichment ratio was not above 0.25.
The same measure for VEVK: not above 0.25; for VNTF: not above 0.25; for YDMG: not above 0.25.
Then FWGL, with not above 0.25; and LRLF, with not above 0.25.
The same measure for NEMI: 29; for PNTD: not above 0.25; for MNCL: 1.41.
Take MDCQ: the enrichment ratio is not above 0.25.
The same measure for KRSE: not above 0.25; for HKSE: not above 0.25.
Then SMDD, with not above 0.25; and YTQW, with not above 0.25.
Then NFLT, with not above 0.25; and YDIH, with not above 0.25; and TVCT, with 6.2.
VLIP: the enrichment ratio is not above 0.25.
Then DPVV, with not above 0.25; and HNHG, with not above 0.25.
With FWRS, the enrichment ratio was determined as 2.47.
The same measure for KPMR: not above 0.25.
The same measure for NKNR: not above 0.25.
For the variant VRWM, the enrichment ratio is not above 0.25.
Then KQSK, with not above 0.25; and SRYL, with not above 0.25; and VPKF, with not above 0.25.
The same measure for RIHG: not above 0.25.
Then QNRH, with not above 0.25.
With GTCD, the enrichment ratio is not above 0.25.
The same measure for QYLH: not above 0.25.
Regarding TMQN, the enrichment ratio is not above 0.25.
Consider DQWF, for which the enrichment ratio was not above 0.25.
The same measure for SKQL: not above 0.25; for GVGK: not above 0.25.
With QMTV, the enrichment ratio is not above 0.25.
Regarding HYPM, the enrichment ratio was not above 0.25.
The same measure for AGFR: not above 0.25.
Then TGLH, with 8.99; and NICV, with not above 0.25.
On to AICG, for which the enrichment ratio was determined as 8.42.
Take YRIF: the enrichment ratio was not above 0.25.
Turning to AWNY, the enrichment ratio is not above 0.25.
Take MHQY: the enrichment ratio was not above 0.25.
Then KNAY, with not above 0.25; and KANS, with not above 0.25; and LAYS, with not above 0.25.
With VVPQ, the enrichment ratio is not above 0.25.
Take RAMN: the enrichment ratio was not above 0.25.
Consider HKLH, for which the enrichment ratio is not above 0.25.
The same measure for HTSP: not above 0.25.
Then QCNW, with not above 0.25; and YWEH, with not above 0.25.
On to DYCD, for which the enrichment ratio is not above 0.25.
The same measure for VISP: not above 0.25; for GFNP: not above 0.25.
As for EHID, the enrichment ratio is not above 0.25.
With YASG, the enrichment ratio is not above 0.25.
The same measure for SWFY: not above 0.25; for ETRA: not above 0.25; for GFCW: not above 0.25.
Then WRTS, with not above 0.25.
The same measure for TVFG: not above 0.25; for ATNN: not above 0.25.
For KYNF, the enrichment ratio was not above 0.25.
On to SSQY, for which the enrichment ratio worked out at 0.712.
The same measure for TVSK: 9.4.
Take WGWV: the enrichment ratio was not above 0.25.
Then HSDC, with not above 0.25; and LGDM, with not above 0.25; and APYP, with not above 0.25.
The same measure for NKQS: not above 0.25.
Then DRYP, with not above 0.25; and IKQL, with not above 0.25; and ISEN, with not above 0.25.
For the variant FRIL, the enrichment ratio was not above 0.25.
Then AALT, with 11.9; and VHGA, with not above 0.25; and LKND, with not above 0.25.
For the variant RDRM, the enrichment ratio was not above 0.25.
The same measure for PVKW: not above 0.25.
Then YRLD, with not above 0.25; and VICR, with not above 0.25; and SHGH, with 0.363.
The same measure for YMFT: not above 0.25; for WDLG: not above 0.25; for GQNQ: not above 0.25.
Turning to VPRR, the enrichment ratio is not above 0.25.
Then GWSI, with not above 0.25; and YVKG, with not above 0.25.
Then PNNP, with not above 0.25; and TEVY, with 1.43; and ANEV, with not above 0.25.
Then LCTR, with not above 0.25; and MVKG, with not above 0.25.
YYFW: the enrichment ratio was not above 0.25.
The same measure for MLQP: not above 0.25; for DSGW: not above 0.25.
Then AAFT, with not above 0.25; and QQMM, with not above 0.25; and HKTY, with not above 0.25.
Then TKQA, with not above 0.25.
On to AVNS, for which the enrichment ratio was not above 0.25.
For the variant NHEF, the enrichment ratio was not above 0.25.
As for IRCQ, the enrichment ratio is not above 0.25.
For the variant HLNS, the enrichment ratio is not above 0.25.
The same measure for DRKA: not above 0.25; for KLYM: not above 0.25.
Turning to WVLP, the enrichment ratio is not above 0.25.
The same measure for QTRY: not above 0.25; for PMIV: not above 0.25.
Then EVDP, with not above 0.25; and NYWR, with not above 0.25; and HADL, with not above 0.25.
YARY: the enrichment ratio was not above 0.25.
The same measure for DAFS: not above 0.25.
DRGQ: the enrichment ratio was not above 0.25.
The same measure for KVSQ: not above 0.25; for KYSW: not above 0.25.
The same measure for EECC: not above 0.25; for NCHY: not above 0.25.
Then RFGL, with not above 0.25; and FALS, with 8.07.
Take LGGT: the enrichment ratio is not above 0.25.
Then YELI, with 8.44.
The same measure for IYTG: not above 0.25.
As to ITYQ, the enrichment ratio was not above 0.25.
Then GTYL, with not above 0.25; and NRGK, with not above 0.25; and PSRH, with not above 0.25.
Then WYSV, with not above 0.25; and FKTP, with not above 0.25; and HAFS, with not above 0.25.
The same measure for RGLF: not above 0.25; for FKMR: not above 0.25.
With FCRY, the enrichment ratio is not above 0.25.
Then IGRW, with not above 0.25; and PIMI, with not above 0.25.
Then VECG, with 3.25; and RMTY, with not above 0.25.
Take TMCL: the enrichment ratio is 7.52.
Then TVDP, with not above 0.25.
Turning to MSCL, the enrichment ratio was determined as 6.54.
The same measure for RPSG: not above 0.25; for YTWK: not above 0.25.
Then TRLC, with 8.6; and SRYE, with not above 0.25.
The same measure for GSWK: not above 0.25; for RFHL: not above 0.25; for WKNI: not above 0.25.
For the variant NMEA, the enrichment ratio is not above 0.25.
The same measure for VGRG: not above 0.25; for DTVR: not above 0.25; for QQRY: not above 0.25.
Then RAIC, with not above 0.25; and QGLN, with not above 0.25.
Then NTRD, with not above 0.25.
Consider DDTI, for which the enrichment ratio was not above 0.25.
The same measure for WHHG: not above 0.25; for LRLT: not above 0.25.
Then SRWP, with not above 0.25.
Then NMWE, with not above 0.25; and RVCT, with not above 0.25.
Turning to NPSH, the enrichment ratio is not above 0.25.
Then NMKL, with not above 0.25; and MKHH, with not above 0.25; and TLIN, with not above 0.25.
Then FKEH, with not above 0.25; and SRII, with 0.811.
The same measure for AGTM: 16.2; for TLLQ: 0.937; for EIRC: not above 0.25.
With HIPG, the enrichment ratio is not above 0.25.
As to IYHY, the enrichment ratio is not above 0.25.
Then IMMN, with not above 0.25; and FSLW, with not above 0.25.
Then NPNG, with not above 0.25.
The same measure for QGCN: not above 0.25; for DEAY: not above 0.25; for KVRV: not above 0.25.
As for DMVF, the enrichment ratio was not above 0.25.
The same measure for SWAR: not above 0.25; for LLIC: not above 0.25; for GRIP: not above 0.25.
Then PLGF, with not above 0.25.
Then DDMK, with not above 0.25; and WHHD, with not above 0.25.
As for DGLQ, the enrichment ratio was not above 0.25.
Then STPC, with not above 0.25; and TIVT, with not above 0.25; and NFHM, with not above 0.25.
The same measure for IQNM: not above 0.25; for TGGT: 0.253; for GMNM: not above 0.25.
Then RPWL, with not above 0.25; and ENMG, with not above 0.25.
In the case of TMAT, the enrichment ratio was found to be 11.2.
Regarding RLHT, the enrichment ratio was not above 0.25.
Then FHVY, with not above 0.25; and QCYM, with not above 0.25.
Then IGWI, with not above 0.25; and EDGA, with not above 0.25.
Regarding WYTV, the enrichment ratio is not above 0.25.
The same measure for NIWR: not above 0.25; for MQVE: not above 0.25; for ACTA: 1.02.
The same measure for NKTP: not above 0.25.
The same measure for TAAK: not above 0.25.
Regarding FSDV, the enrichment ratio is not above 0.25.
Then NALS, with not above 0.25; and WMTI, with not above 0.25.
As to APSV, the enrichment ratio is not above 0.25.
Then IICV, with not above 0.25.
The same measure for KHSY: not above 0.25; for ITMF: 0.899; for AIYH: not above 0.25.
Take GNSL: the enrichment ratio was found to be 10.3.
For KRTM, the enrichment ratio is not above 0.25.
On to SMDM, for which the enrichment ratio is not above 0.25.
The same measure for RTKP: not above 0.25; for IKTQ: not above 0.25; for SEHM: 23.7.
LWFK: the enrichment ratio is not above 0.25.
The same measure for AMTV: 9.95; for IVAH: not above 0.25; for DEDL: not above 0.25.
Then FQGM, with not above 0.25.
Consider DMDG, for which the enrichment ratio is not above 0.25.
Take GIMQ: the enrichment ratio stood at 11.4.
As to GMPR, the enrichment ratio was not above 0.25.
The same measure for HWFG: not above 0.25.
The same measure for AQWT: not above 0.25.
Then INIY, with not above 0.25.
Regarding RMQC, the enrichment ratio is not above 0.25.
The same measure for DKGG: not above 0.25; for TYNP: not above 0.25; for FSQT: 1.24.
The same measure for IFGE: not above 0.25; for IAQM: not above 0.25; for KGMK: not above 0.25.
Then AEIG, with 21.9; and GFRS, with 0.335; and RFRF, with not above 0.25.
On to THPG, for which the enrichment ratio was not above 0.25.
Then GQHY, with not above 0.25.
Then GSKG, with not above 0.25; and RVHL, with not above 0.25; and TAVR, with not above 0.25.
Consider MDWG, for which the enrichment ratio is not above 0.25.
On to MSDI, for which the enrichment ratio is not above 0.25.
Then LCWA, with not above 0.25.
IWRP: the enrichment ratio is not above 0.25.
The same measure for EESV: not above 0.25.
